According to article PMC4336329 (PLoS ONE, 2015):
Screen size: about 310,000 compounds; about 2,200 (0.71%) showed an effect of 50% or more. The effect is printed as a negative number. Some of the results follow.

These compounds were tested against human ether-à-go-go-related gene (hERG) potassium channel (human, UniProt Q12809) (assay: primary screen, population patch clamp on CHO cells stably expressing hERG).
human ether-à-go-go-related gene (hERG) potassium channel, sequence (Q12809 whole entry, looked up): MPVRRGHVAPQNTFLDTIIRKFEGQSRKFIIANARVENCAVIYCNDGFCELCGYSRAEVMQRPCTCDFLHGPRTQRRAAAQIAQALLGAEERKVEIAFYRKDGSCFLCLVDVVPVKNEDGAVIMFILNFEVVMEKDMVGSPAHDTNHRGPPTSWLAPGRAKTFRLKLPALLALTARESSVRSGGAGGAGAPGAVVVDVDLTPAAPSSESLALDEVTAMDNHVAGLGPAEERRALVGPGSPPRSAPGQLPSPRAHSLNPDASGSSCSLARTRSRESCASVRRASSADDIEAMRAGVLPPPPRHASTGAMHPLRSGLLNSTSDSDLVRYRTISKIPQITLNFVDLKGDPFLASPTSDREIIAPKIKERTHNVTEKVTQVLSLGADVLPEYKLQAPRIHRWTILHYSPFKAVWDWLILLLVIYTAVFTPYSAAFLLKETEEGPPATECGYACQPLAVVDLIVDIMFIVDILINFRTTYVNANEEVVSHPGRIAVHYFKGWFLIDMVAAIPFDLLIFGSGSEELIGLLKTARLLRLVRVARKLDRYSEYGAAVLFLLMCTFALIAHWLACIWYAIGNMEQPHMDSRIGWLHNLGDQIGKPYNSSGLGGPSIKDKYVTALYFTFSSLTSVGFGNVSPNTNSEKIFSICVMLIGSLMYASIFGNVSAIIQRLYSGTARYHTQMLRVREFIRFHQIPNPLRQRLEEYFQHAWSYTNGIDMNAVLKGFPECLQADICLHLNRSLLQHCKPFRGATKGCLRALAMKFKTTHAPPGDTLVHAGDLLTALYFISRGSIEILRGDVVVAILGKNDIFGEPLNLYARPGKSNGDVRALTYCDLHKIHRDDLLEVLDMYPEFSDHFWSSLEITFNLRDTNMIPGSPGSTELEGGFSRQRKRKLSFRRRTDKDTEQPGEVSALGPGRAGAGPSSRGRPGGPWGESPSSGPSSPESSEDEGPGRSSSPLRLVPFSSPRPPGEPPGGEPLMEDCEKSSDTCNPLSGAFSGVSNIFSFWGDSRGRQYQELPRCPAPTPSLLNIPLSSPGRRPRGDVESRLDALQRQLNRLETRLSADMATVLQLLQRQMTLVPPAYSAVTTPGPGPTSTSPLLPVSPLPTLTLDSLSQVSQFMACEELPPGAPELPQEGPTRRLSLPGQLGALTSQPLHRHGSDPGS
In the case of `O=C(COC(=O)c1cc([N+](=O)[O-])ccc1NCCO)Nc1ccc2c(c1)OCO2`, the “hERG current change (%, negative = inhibition) at 1uM” value is reported as 3.51%.
In the case of `O=S(=O)(Nc1ccc(Cl)cn1)c1ccc(F)cc1`, the “hERG current change (%, negative = inhibition) at 1uM” value is reported as 7.62%.
With `CCOCCCNc1ccc(N2C(=O)C3CCCCC3C2=O)cc1[N+](=O)[O-]` (stereo not drawn) the “hERG current change (%, negative = inhibition) at 1uM” value was 6.14%.
In the case of `O=S(=O)(Cc1ccccc1)NCC1CCCN(Cc2ccc(F)c(F)c2)C1` (stereo not drawn), the “hERG current change (%, negative = inhibition) at 1uM” value is reported as -3.01%.
With `CC1(C)C(C(=O)NCc2ccco2)C1(C)C` the “hERG current change (%, negative = inhibition) at 1uM” value was 6.33%.
In the case of `C[C@@H]1C[C@H]2[C@@H]3C[C@H](F)C4=CC(=O)C(Cl)=C[C@]4(C)[C@@]3(F)[C@@H](O)C[C@]2(C)[C@@]1(O)C(=O)CO`, the “hERG current change (%, negative = inhibition) at 1uM” value is reported as 1.82%.
In the case of `CC(=O)Nc1ccc(-c2nn[nH]n2)cc1`, the “hERG current change (%, negative = inhibition) at 1uM” value is reported as 1.91%.
With `CC(C)(C)C(=O)Nc1nnc(SCC(=O)Nc2ccc3c(c2)OCO3)s1` the “hERG current change (%, negative = inhibition) at 1uM” value was 10.9%.
For `CN(Cc1ccccc1)Cc1nc2c(c(=O)n(C)c(=O)n2C)n1CCc1ccccc1`, the “hERG current change (%, negative = inhibition) at 1uM” value was -8.44%.
For `Cc1cc(NS(=O)(=O)c2ccc(NC(=O)Cc3ccc([N+](=O)[O-])cc3)cc2)no1`, the “hERG current change (%, negative = inhibition) at 1uM” value was 9.91%.
`COc1cccc(-n2c(CN3CCN(c4ccccn4)CC3)nc3ccc([N+](=O)[O-])cc3c2=O)c1` was tested, and the “hERG current change (%, negative = inhibition) at 1uM” value was -3.03%.
With `CCn1c(SCC(=O)NC2CC2)nnc1-c1ccc(OC)cc1` the “hERG current change (%, negative = inhibition) at 1uM” value was 20.5%.
In the case of `O=C(NCCCN1CCOCC1)c1ccc(S(=O)(=O)Nc2ccccc2)cc1`, the “hERG current change (%, negative = inhibition) at 1uM” value is reported as 25.3%.
With `CN1/C(=C\C(=O)COC(=O)c2ccc(O)cc2)C(C)(C)c2ccccc21` the “hERG current change (%, negative = inhibition) at 1uM” value was 21.4%.
For `CN1CCC(O)(c2ccccc2)C2CCCC21` (stereo not drawn), the “hERG current change (%, negative = inhibition) at 1uM” value was 10.2%.
In the case of `COc1ccc(NC(=O)Cn2nnc(C(=O)NCc3cccs3)c2N)c(OC)c1`, the “hERG current change (%, negative = inhibition) at 1uM” value is reported as 13.2%.
With `COc1ccc(S(=O)(=O)NCc2ccc(C(=O)N3CCN(c4ccccn4)CC3)cc2)cc1` the “hERG current change (%, negative = inhibition) at 1uM” value was 0.714%.
For `Nc1nnc(SCC(=O)NN2C(=O)NC3(CCCCC3)C2=O)s1`, the “hERG current change (%, negative = inhibition) at 1uM” value was 12.5%.
With `Cc1cccc(NC(=O)CNC(=O)CN2C(=O)NC3(CCCCC3C)C2=O)c1C` (stereo not drawn) the “hERG current change (%, negative = inhibition) at 1uM” value was 15.4%.
In the case of `COc1ccccc1N1CCN(C(=O)c2cccc(S(=O)(=O)N3CCCCCC3)c2)CC1`, the “hERG current change (%, negative = inhibition) at 1uM” value is reported as -18.5%.
`Cc1ccc(Cl)cc1N1C(=O)CC(Sc2ncccn2)C1=O` (stereo not drawn) was tested, and the “hERG current change (%, negative = inhibition) at 1uM” value was 15.5%.
For `CC(C)c1ccc(S(=O)(=O)N2CCN(C(C)C(=O)N3CCCC3)CC2)cc1` (stereo not drawn), the “hERG current change (%, negative = inhibition) at 1uM” value was 5.12%.
In the case of `CC1CC(C)CN(C(=O)c2cc(-c3ccncc3)nc3ccccc23)C1` (stereo not drawn), the “hERG current change (%, negative = inhibition) at 1uM” value is reported as -1.84%.
With `O=C(Nc1ccnn1C1CCN(C(=O)Cc2ccccc2F)CC1)C1CC1` the “hERG current change (%, negative = inhibition) at 1uM” value was 14.3%.
With `CC(C)C(=O)N(Cc1cc2ccccc2[nH]c1=O)C(C)C` the “hERG current change (%, negative = inhibition) at 1uM” value was -4.32%.
In the case of `COc1cccc(C(=O)NCCCNC(=O)c2cccc(OC)c2)c1`, the “hERG current change (%, negative = inhibition) at 1uM” value is reported as 12.4%.
With `CC(C)CCNC(=O)CNC(=O)c1cccs1` the “hERG current change (%, negative = inhibition) at 1uM” value was 9.83%.
`O=C(O)C1(NS(=O)(=O)c2ccc(F)c(Cl)c2)CCCCC1` was tested, and the “hERG current change (%, negative = inhibition) at 1uM” value was 14.2%.
In the case of `Nc1nc(NC(=O)CCCC(=O)O)nn1-c1ccccc1`, the “hERG current change (%, negative = inhibition) at 1uM” value is reported as 8.76%.
`Cc1nn(-c2ccccc2)c2c1C(O)n1c(nc3ccccc31)S2` (stereo not drawn) was tested, and the “hERG current change (%, negative = inhibition) at 1uM” value was 8.37%.
In the case of `COc1cc(/C=N/NC(=O)C(N)=O)ccc1OCC(=O)N1C(C)CCCC1C` (stereo not drawn), the “hERG current change (%, negative = inhibition) at 1uM” value is reported as 5.24%.
In the case of `O=C(c1ccco1)N(Cc1cc2ccccc2[nH]c1=O)C1CCCCC1`, the “hERG current change (%, negative = inhibition) at 1uM” value is reported as 22%.
In the case of `COC(=O)c1cccc(N(CC(=O)NC2CCCCC2)C(=O)CNC(=O)c2cccs2)c1`, the “hERG current change (%, negative = inhibition) at 1uM” value is reported as 13.3%.
In the case of `COc1ccccc1NS(=O)(=O)c1cc(NC(=O)CNC(=O)c2ccc(C)s2)ccc1Cl`, the “hERG current change (%, negative = inhibition) at 1uM” value is reported as 10.2%.
In the case of `CCCCc1cc(=O)oc2c(C)c(OCC(=O)NCC3CCC(C(=O)O)CC3)ccc12` (stereo not drawn), the “hERG current change (%, negative = inhibition) at 1uM” value is reported as 11.3%.
In the case of `Cc1cc(C(=O)COC(=O)c2n[nH]c(=O)c3ccccc23)c(C)n1C(C)C`, the “hERG current change (%, negative = inhibition) at 1uM” value is reported as 4.81%.
In the case of `CN(C)C(=O)c1ccc(N/C=C(\C=O)c2nc3ccccc3o2)cc1`, the “hERG current change (%, negative = inhibition) at 1uM” value is reported as 2.79%.
With `CCCc1cc(=O)n2[nH]c(NCc3c(F)cccc3Cl)nc2n1` the “hERG current change (%, negative = inhibition) at 1uM” value was 12.7%.
In the case of `O=c1nc2n(c3ccc(Br)cc13)CCS2`, the “hERG current change (%, negative = inhibition) at 1uM” value is reported as 9.96%.
`Cc1cccc(C)c1OCC(=O)OC/C(O)=C(\C#N)c1nc2ccccc2[nH]1` was tested, and the “hERG current change (%, negative = inhibition) at 1uM” value was 11.7%.
`O=C(c1cc(-c2ccccc2)nc2ccccc12)N1CCCc2ccccc21` was tested, and the “hERG current change (%, negative = inhibition) at 1uM” value was -0.0772%.
For `COC(=O)c1ccccc1NC(=O)CSc1nnc(C(CO)NC(=O)c2ccccc2Cl)n1C` (stereo not drawn), the “hERG current change (%, negative = inhibition) at 1uM” value was 9.46%.
